In all, about 310,000 compounds went through this assay and about 14,000 (4.5%) showed an effect of 50% or more. The effect is printed as a negative number. The list shows a part of the results.
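Note: peak tail current of the secondary pulse compared with the same well before compound.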

For this test, the target named is human ether-à-go-go-related gene (hERG) potassium channel (human, UniProt Q12809). Description: primary screen, population patch clamp on CHO cells stably expressing hERG.
Sequence of human ether-à-go-go-related gene (hERG) potassium channel (Q12809 whole entry, looked up): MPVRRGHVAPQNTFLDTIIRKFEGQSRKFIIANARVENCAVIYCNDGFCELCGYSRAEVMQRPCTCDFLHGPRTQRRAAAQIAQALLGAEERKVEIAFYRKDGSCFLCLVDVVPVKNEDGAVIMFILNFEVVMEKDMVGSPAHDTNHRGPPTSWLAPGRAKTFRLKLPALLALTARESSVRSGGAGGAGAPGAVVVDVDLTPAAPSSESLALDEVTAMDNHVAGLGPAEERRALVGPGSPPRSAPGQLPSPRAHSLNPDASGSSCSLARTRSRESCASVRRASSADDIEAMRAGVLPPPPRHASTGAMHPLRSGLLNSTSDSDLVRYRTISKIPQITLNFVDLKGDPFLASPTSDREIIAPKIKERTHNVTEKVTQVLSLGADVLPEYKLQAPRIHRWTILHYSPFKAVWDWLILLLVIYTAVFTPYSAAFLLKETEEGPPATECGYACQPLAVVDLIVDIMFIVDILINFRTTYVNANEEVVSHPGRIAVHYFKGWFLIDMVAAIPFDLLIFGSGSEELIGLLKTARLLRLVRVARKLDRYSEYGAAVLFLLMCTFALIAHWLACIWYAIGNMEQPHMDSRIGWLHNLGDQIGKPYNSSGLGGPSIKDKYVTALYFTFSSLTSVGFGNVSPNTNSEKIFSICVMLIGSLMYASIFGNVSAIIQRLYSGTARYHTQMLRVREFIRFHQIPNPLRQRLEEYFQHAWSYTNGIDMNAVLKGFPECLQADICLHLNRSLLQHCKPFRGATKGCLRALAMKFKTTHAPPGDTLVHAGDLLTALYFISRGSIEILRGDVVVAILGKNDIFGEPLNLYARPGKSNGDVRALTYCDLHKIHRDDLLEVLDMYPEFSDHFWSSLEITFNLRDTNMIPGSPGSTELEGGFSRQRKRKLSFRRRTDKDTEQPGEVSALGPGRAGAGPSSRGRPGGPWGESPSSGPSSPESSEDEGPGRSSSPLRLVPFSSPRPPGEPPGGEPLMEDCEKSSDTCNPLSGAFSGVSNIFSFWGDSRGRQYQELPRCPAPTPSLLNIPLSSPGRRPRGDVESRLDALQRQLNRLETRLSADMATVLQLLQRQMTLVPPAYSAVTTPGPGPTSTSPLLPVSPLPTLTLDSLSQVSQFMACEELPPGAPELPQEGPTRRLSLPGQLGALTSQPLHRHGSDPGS
For `COc1cc(S(=O)(=O)NCc2ccc3c(c2)OCO3)ccc1Cl`, the “hERG current change (%, negative = inhibition) at 10uM” value was -26.1%.
Turning to `Cc1cc(/C=C2\C(=N)N3N=C(C(C)C)SC3=NC2=O)c(C)n1-c1ccccc1`, the “hERG current change (%, negative = inhibition) at 10uM” value was 29.4%.
To `CCC(C)n1c(SCC(=O)NC(=O)Nc2ccc3c(c2)OCCO3)nc2ccccc2c1=O` (centres unmarked) belongs 12.8%.
Take `O=C(NC(=S)Nc1ccc(S(=O)(=O)N2CCCC2)cc1)c1cccs1`: the “hERG current change (%, negative = inhibition) at 10uM” value is -16.5%.
To `COc1ccc(C(=O)NC2CCSc3ccccc32)cc1` (centres unmarked) belongs -3.66%; to `Cc1ccc(-n2nc3c(c2NC(=O)c2ccco2)CS(=O)(=O)C3)cc1`, -25.7%; to `CCN(CC)C(=S)SCC(=O)Nc1ncc2c(n1)CC(C)(C)CC2=O`, -13.5%.
The figure for `COc1ccc(N=Cc2cccc(C)c2O)cc1Cl` is -0.875%.
The figure for `C/C(CC(=O)NCc1ccco1)=N\NC(=O)CC#N` is 10.9%.
Consider `CCCc1cc(=O)n2nc(N3CCC(C(=O)N4CCN(c5ccc(OC)cc5)CC4)CC3)sc2n1`, for which the “hERG current change (%, negative = inhibition) at 10uM” value is -29.6%.
To `Cc1ccc(CN2CCN(/N=C/c3ccc(C(=O)O)cc3)CC2)cc1` belongs 5.6%; to `CN(C)CC(CCCCC(CN(C)C)C(=O)c1ccccc1)C(=O)c1ccccc1` (centres unmarked), 9.78%.
The figure for `CCc1ccccc1NC(=O)Cn1nnc(-c2cccs2)n1` is 10.9%.
The figure for `O=C(O)C1CSC(c2ccccc2)N1C(=O)c1ccco1` (centres unmarked) is 14.7%; for `Cc1ccc(S(=O)(=O)NC(C)(C)C)cc1C(=O)OC(C)C(=O)NC1CC1` (centres unmarked) it is 8.25%.
In the case of `O=C(NCc1ccccc1)c1ccc(CS(=O)(=O)c2ccc(Br)cc2)o1`, the “hERG current change (%, negative = inhibition) at 10uM” value was determined as 4.76%.
To `CS(=O)(=O)N(CC(=O)NCCSc1ccccn1)c1ccc(F)cc1` belongs 33.1%; to `O=C(O)CCCNC(=O)/C(=C\C=C\c1ccccc1)NC(=O)c1ccccc1Cl`, -6.09%; to `O=C(CCc1ccc(S(=O)(=O)NC2CCCCC2)cc1)NCc1cccnc1`, -6.66%.
To `O=S(=O)(NCc1cn2ccccc2n1)c1ccccc1F` belongs -6.23%; to `COc1ccc(OCCn2cc(C=O)c3ccccc32)cc1`, -6.47%; to `COc1ccc(NC(=O)c2cc(C3CC3)on2)c(OC)c1`, -3.02%.
To `COC(=O)N(NC(=O)C(O)(c1ccccc1)c1ccccc1)c1ccccc1` belongs 9.59%; to `CN(C)C(=O)CSc1nnc(-c2ccc(F)cc2)c2ccccc12`, -7.61%.
Take `CCNS(=O)(=O)c1cc(-c2nnc(OC)c3ccccc23)ccc1C`: the “hERG current change (%, negative = inhibition) at 10uM” value was -37.3%.
The figure for `Cn1c(CN2CCOCC2)nnc1SCC(=O)NCCc1ccccc1` is -3.2%; for `CC1CC(C)CN(C(=O)CCc2nnc3ccc(N4CCCCC4)nn23)C1` (centres unmarked) it is -6.94%.
The figure for `CCOc1ccc(NC(=S)c2ccc3ccccc3n2)cc1` is 8.39%; for `O=C(COC(=O)Cc1cccc(C(F)(F)F)c1)Nc1cccc2ccccc12` it is 18%; for `CCn1c(-c2cc(-c3ccc(C)c(C)c3)nc3ccccc23)n[nH]c1=S` it is 20.5%.
To `CCCc1cc(C(=O)NCc2cccnc2)no1` belongs 7.33%; to `CC(=O)C1=C(C)NC(SCSc2ccccc2)=C(C#N)C1c1cccnc1` (centres unmarked), -40.2%; to `CC(C)c1onc(C(=O)N2CCN(c3ccccc3)CC2)c1[N+](=O)[O-]`, 14.1%.
With `CCCC1CCc2[nH]nc(C(=O)NN)c2C1` (centres unmarked), the “hERG current change (%, negative = inhibition) at 10uM” value is 10.7%.
Take `Cc1nc(-c2ccc(Cl)cc2)sc1C(=O)O`: the “hERG current change (%, negative = inhibition) at 10uM” value was 18.4%.
To `O=C(CCC1CCCCC1)NCCN1C2=NC[C@H](Cc3ccccc3)N2C[C@H]1Cc1ccc(O)cc1` belongs -42%; to `CCC/C(O)=C1\C(=O)CC(C)(C)CC1=Nc1ccccc1O`, 2.95%.
As for `CC(C)NC(=O)CSCc1ccccc1Cl`, the “hERG current change (%, negative = inhibition) at 10uM” value is given as 12.9%.
The figure for `COCCCNC(=O)c1cc(Nc2ccc(OC)cc2OC)nc2ccccc12` is 16.7%; for `O=C(/C=C/c1ccc(Cl)cc1Cl)N1CCN(c2ccc([N+](=O)[O-])c(N3CCOCC3)c2)CC1` it is -34.5%.
To `COC(=O)c1ccc(NC(=S)N2CCN(Cc3ccc(Cl)cc3)CC2)cc1` belongs 1.51%; to `CCCCCCCCCCOC(=O)Cn1c(COc2cccc(OC)c2)[n+](C)c2ccccc21.[Cl-]`, -76.7%; to `O=C(COC(=O)c1ncc(Cl)c(Cl)c1Cl)c1ccc(Cl)s1`, 4.81%.
To `O=C(O)CCCCCn1c(SCC(=O)Nc2ccc(F)cc2)nc2ccsc2c1=O` belongs 25.3%; to `Cc1cc2c(c(=O)n1CCc1ccccc1)C(C(C)C)C(C#N)=C(N)O2` (centres unmarked), 5.58%.
Regarding `O=C(c1ccccc1)N1CN2CN(C(=O)c3ccccc3)CC([N+](=O)[O-])(C2)C1`, the “hERG current change (%, negative = inhibition) at 10uM” value is 21.8%.
On to `COc1ccc(CCNC(=O)C(=O)NCC2OCCN2S(=O)(=O)c2ccc(OC)cc2)cc1` (centres unmarked), for which the “hERG current change (%, negative = inhibition) at 10uM” value is on record as -47.3%.
As to `CC(C)CNC(=O)C(=O)N/N=C/c1cccs1`, the “hERG current change (%, negative = inhibition) at 10uM” value was -1.2%.
To `O=c1c2ccccc2cnn1-c1ccc2ccccc2c1` belongs 2.34%; to `O=C(NCCn1cccn1)C1CCC(=O)N(CCc2cccc(F)c2)C1` (centres unmarked), 0.7%.
To `Cc1sc(NC(=O)Cn2nc(C(F)(F)F)cc2C)c(C(=O)OC(C)C)c1C` belongs 9.3%; to `CCC(CC)C(=O)Nc1ccc(C)cc1O`, 12.1%; to `CCOc1ccc(NC(=O)CCN2C(=O)CSc3ccccc32)cc1`, -25.3%.
The figure for `Cc1cccn2c(=O)c(/C=C(\C#N)S(=O)(=O)c3ccccc3)c(N3CCCCC3)nc12` is 9.28%.
For the compound `COc1ccc(CNC(=O)CN(C(=O)c2snc(C(N)=O)c2N)c2cccc(F)c2)cc1`, the “hERG current change (%, negative = inhibition) at 10uM” value is 16.4%.
The figure for `COc1cc(/C=N\NC(=O)c2cccnc2)ccc1OC(=O)c1ccccc1Cl` is -7.3%; for `O=C(CCN1C(=O)S/C(=C\c2ccccc2)C1=O)N1CCCCC1` it is -19.9%; for `CC(C)C(=O)C1=Cc2cc([N+](=O)[O-])ccc2OC1N1CCOCC1` (centres unmarked) it is -3.01%.
To `Cn1c(SCc2ccc(C#N)cc2)nnc1-c1ccncc1` belongs -19.7%.
To `CCC1CCCCN1C(=O)c1ccc(OC)c(OC2CCN(C(C)C)CC2)c1` (centres unmarked) belongs -19.2%; to `CCC(C)[C@H](NC(=O)N1CCC(Cc2ccccc2)CC1)C(=O)O` (some centres unmarked), 15.2%; to `Cn1c(=O)c2c(nc(NCc3ccc4c(c3)OCO4)n2C)n(C)c1=O`, -13.1%.
`CC(NC(=O)C1CCN(c2nnc(N3CCCC3=O)s2)CC1)c1ccccc1` (centres unmarked): the “hERG current change (%, negative = inhibition) at 10uM” value turned out to be 12.2%.
As for `Cc1ccc(CNc2ccc(N3CCOCC3)cc2)s1`, the “hERG current change (%, negative = inhibition) at 10uM” value is -6.34%.
The figure for `O=C(OC1CCOC1=O)c1cccc(S(=O)(=O)Nc2ccc(F)cc2)c1` (centres unmarked) is -4.31%; for `CCN(CC)S(=O)(=O)c1ccccc1/C=N\O` it is -1.33%.
To `COc1cccc(-c2csc(NC(C)=O)n2)c1` belongs 8.32%; to `CC1CN(c2ccccc2)C(=O)CS1` (centres unmarked), 2.96%.
To `CCOC(=O)c1cccc(NC(=O)CSc2nnc(-c3cccnc3)n2CC)c1` belongs -37.5%.
For `CCOC(=O)N1CCN(C(=O)c2ccc(NC(=O)CC)cc2)CC1`, the “hERG current change (%, negative = inhibition) at 10uM” value was -4.3%.
Turning to `CN(C(=O)CSc1nnc(Nc2ccccc2)s1)C1CCS(=O)(=O)C1` (centres unmarked), the “hERG current change (%, negative = inhibition) at 10uM” value was -14.8%.
On to `CCOC(=O)C1(CC2CCCCO2)CCN(S(=O)(=O)c2ccc(C)s2)CC1` (centres unmarked), for which the “hERG current change (%, negative = inhibition) at 10uM” value is recorded as 9.12%.
The figure for `O=C(/C=C/c1ccccc1)NC(NC(=S)Nc1ccc(Cl)cc1Cl)C(Cl)(Cl)Cl` (centres unmarked) is 11.1%; for `O=C(N/N=C/c1cccnc1)c1ccccc1OCc1ccc(Br)cc1` it is -52.6%; for `CSc1ccc(CNc2ccccn2)cc1` it is -16.7%.
To `CN(CCC#N)C(=O)COC(=O)[C@H](Cc1ccccc1)N1C(=O)c2ccccc2C1=O` belongs -2.25%; to `CCCCn1c2nc3ccccc3nc2c2c(=O)n(CCC)cnc21`, 2.04%; to `C=CCOc1ccccc1CN1CCC(Oc2ccc(C(=O)N3CCCC3)cc2)CC1`, -41.8%.
The figure for `COc1ccccc1NC(=O)C1CCCN(S(=O)(=O)c2cnc[nH]2)C1` (centres unmarked) is 21.6%; for `O=C(c1cccc(F)c1)N1CCN(C(=O)c2cc3nc(-c4ccco4)cc(C(F)(F)F)n3n2)CC1` it is -16.7%; for `Cc1nnc(NC(=O)c2ccccc2C(=O)O)s1` it is 9.82%.
On to `C#Cc1ccc([C@@H]2C=C(C(=O)NCc3ccccc3)O[C@H](OCC)[C@H]2CCCO)cc1`, for which the “hERG current change (%, negative = inhibition) at 10uM” value is reported as -18.4%.
To `COc1cccc(CN2CC(C(=O)N(C)C3CCOCC3)CCC2=O)c1` (centres unmarked) belongs 10.8%; to `Cc1ccc(CC(=O)NCC(O)c2ccccc2)cc1` (centres unmarked), 10.2%.
The figure for `CCN1CCN(C(=O)CN2C(=O)COc3ccc(C)cc32)CC1` is 13.7%.
To `O=C(O)/C=C/C(=O)NNC(=O)c1ccc(Cl)cc1Cl` belongs 11.7%; to `Cc1occc1C(=O)N1CCCC(CO)(Cc2ccc(F)cc2F)C1` (centres unmarked), -13.6%.
On to `CN=C1SC(CC(=O)NCCc2ccc(OC)c(OC)c2)C(=O)N1C` (centres unmarked), for which the “hERG current change (%, negative = inhibition) at 10uM” value came to 7.39%.
To `ONc1cccnc1-n1nc(C(F)(F)F)cc1C(F)(F)F` belongs 11.9%.
